# In all, about 33,000 sequences were measured (“E-score (-0.5 to 0.5)”: median about -0.041, highest 2% from about 0.37 on). The list shows a part of the results.
# Target: T1, Ecm22 (UniProt Q05958)
# T1 sequence: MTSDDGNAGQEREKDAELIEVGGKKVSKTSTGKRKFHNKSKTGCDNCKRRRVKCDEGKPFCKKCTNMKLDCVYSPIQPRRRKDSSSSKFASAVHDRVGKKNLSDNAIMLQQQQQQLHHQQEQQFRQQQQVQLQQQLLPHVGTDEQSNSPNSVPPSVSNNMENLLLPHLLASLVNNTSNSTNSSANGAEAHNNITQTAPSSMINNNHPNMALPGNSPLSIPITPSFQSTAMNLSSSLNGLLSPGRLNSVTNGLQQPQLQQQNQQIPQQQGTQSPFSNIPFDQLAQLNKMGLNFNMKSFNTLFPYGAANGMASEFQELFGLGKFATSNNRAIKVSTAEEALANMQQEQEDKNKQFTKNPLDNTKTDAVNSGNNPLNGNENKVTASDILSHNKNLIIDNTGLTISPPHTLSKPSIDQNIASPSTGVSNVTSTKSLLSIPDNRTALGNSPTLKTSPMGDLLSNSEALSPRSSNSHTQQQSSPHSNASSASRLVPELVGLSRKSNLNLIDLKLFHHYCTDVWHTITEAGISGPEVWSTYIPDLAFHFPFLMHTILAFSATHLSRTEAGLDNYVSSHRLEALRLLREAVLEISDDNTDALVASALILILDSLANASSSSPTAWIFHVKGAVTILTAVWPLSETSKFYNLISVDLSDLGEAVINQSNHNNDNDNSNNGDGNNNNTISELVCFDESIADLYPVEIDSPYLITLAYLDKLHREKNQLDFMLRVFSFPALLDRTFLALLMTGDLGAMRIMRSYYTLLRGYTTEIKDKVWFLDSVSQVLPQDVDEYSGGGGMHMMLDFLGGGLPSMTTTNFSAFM
# Experiment: PBM E-score (8-mer binding enrichment) (E-score (-0.5 to 0.5)); higher = stronger / more preferred TF binding; most listed sequences are background and not binding sites
# Settings: protein concentration: 200 nM; construct: GST-full length
# In short: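 Detection of bound protein used fluorescent anti-GST, with scans normalised by masliner. The proteins were GST-tagged yeast transcription factors applied at about 100-200 nM to universal all-10-mer Agilent arrays made double-stranded by primer extension. Each ungapped eight-base word, pooled with its reverse complement, was scored with an E-score from the Universal PBM Analysis Suite.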
row,Sequence,PBM E-score
1,ACCTTGCC,-0.195
2,GTTACTGA,0.133
3,CAACACAG,-0.098
4,GGCGTTGA,-0.126
5,AGAACACG,-0.00539
6,AACGCGTA,0.187
7,CGATTTAG,-0.00961
8,GGCACTAC,-0.0802
9,AAGTCGGT,0.0368
10,GTTCGTTA,0.356
11,GCGCTAAA,-0.0453
12,CGGTTGAG,0.167
13,GAGTCGCC,-0.0892
14,GGTACTGA,-0.0769
15,ATGTGCGG,-0.121
16,ACTATTCC,-0.104
17,CGAGTAAA,0.135
18,GGGTAACC,-0.079
19,AAATATTC,0.0894
20,CCCTTGGC,-0.392
21,GTCTGGGA,0.0462
22,AAATAGAA,0.0389
23,CGCGTTTC,0.0578
24,GATATTAC,0.244

row,Sequence,PBM E-score
1,AGCGGTGC,0.0264
2,CTAGGCTA,-0.33
3,AGCGGCAC,-0.14
4,AATCGTAT,0.427
5,CATGCAGA,-0.112
6,AGGTGTAG,-0.171
7,GTGATGAA,-0.0964
8,GACCGGCA,-0.122
9,ACCTACAC,-0.235
10,TCCCAAGA,-0.133
11,GTAATGCA,-0.171
12,CGAACGGA,0.24
13,CACATGAC,-0.187
14,AATAATGT,-0.108
15,AAAAGCTG,-0.0786
16,ACAAACAT,-0.0482
17,GTAACGCA,0.102
18,CCAGAGTC,-0.149
19,ATTCAGTA,0.0834
20,ACACGGGT,-0.0477
21,CCAGCTAA,-0.101
22,ATGTCTTA,-0.0321
23,GAGTACAA,0.0511
24,ATAGTGAA,-0.118

row,Sequence,PBM E-score
1,CGGACAAC,0.12
2,CCCGAGCA,0.093
3,CCAAGTGC,-0.121
4,GACCCGGA,-0.17
5,CATACCCG,-0.0365
6,GACATGGC,-0.0518
7,GGAATCAA,-0.114
8,ACACGCCC,-0.102
9,TGAGTGCA,-0.0807
10,AAGAAGGA,-0.241
11,GAGTCAAC,-0.0861
12,AAGGATAT,-0.0788
13,AATTTTTA,0.0432
14,AACACCCG,0.0252
15,AATTAGGA,-0.0287
16,CCCGCAAG,-0.192
17,ACACCGCA,-0.0151
18,ATAAGTAC,0.161
19,ACAGAGGC,0.112
20,CCAAGGCG,-0.0227
21,ATTAAGGG,-0.291
22,CGTTTTTC,0.107
23,CCGCAGAC,-0.069
24,GACACCGC,0.0157

row,Sequence,PBM E-score
1,ACTAAATC,-0.025
2,AAAGATGA,-0.123
3,CAGTATAG,0.0643
4,CACACGGC,-0.0467
5,AAGATGAC,-0.202
6,CAATCACC,-0.00125
7,GGAAGTGA,0.0669
8,AGATTGAG,-0.076
9,CAAAACGC,-0.102
10,CGCGCGCC,0.119
11,CGTGTTTA,0.118
12,CGCGGACA,-0.0878
13,AACGGGGA,0.29
14,GCCAAGGA,-0.213
15,CGCTTTAC,0.229
16,GCCTGCGA,-0.237
17,GCAATTGA,-0.101
18,AATGAACT,0.0961
19,TCATCCAA,-0.00678
20,CTGTTAGC,-0.0802
21,GCGGGAGA,-0.0617
22,CAAACGAC,0.442

# Source: the supplement of paper PMC3334620
